Measured values: PubChem BioAssay AID504332 (National Center for Advancing Translational Sciences (NCATS), 2011)
Values joined by “and” are separate entries in the source; they are usually repeats but may differ in a detail not shown here. Identical values can stand only once. Among all 350,000 compounds or so, about 31,000 (8.9%) were called active. The inconclusive results got no clear call from the source; some entries with a clear call stand among them for comparison. Calls come from the whole dose curve; as a rule, active = well fitted inhibition curve with a large enough effect; inconclusive = small, poorly fitted or top-dose-only effect; inactive = no such curve, though single readings can be large or run the other way. A potency beside an inconclusive call is a rough fit, not a confirmed value.

target: Histone-lysine N-methyltransferase EHMT2 (Homo sapiens) (UniProt Q96KQ7); test: qHTS Assay for Inhibitors of Histone Lysine Methyltransferase G9a; details: G9a H3K9 monomethylation, AlphaScreen, 2 h; activity, negative = inhibition: at 59 µM (top of the series) unless noted; note: nearly all actives have a fitted effect of over 75% in size
Chain of UniProt Q96KQ7 (Q96KQ7 whole entry, looked up): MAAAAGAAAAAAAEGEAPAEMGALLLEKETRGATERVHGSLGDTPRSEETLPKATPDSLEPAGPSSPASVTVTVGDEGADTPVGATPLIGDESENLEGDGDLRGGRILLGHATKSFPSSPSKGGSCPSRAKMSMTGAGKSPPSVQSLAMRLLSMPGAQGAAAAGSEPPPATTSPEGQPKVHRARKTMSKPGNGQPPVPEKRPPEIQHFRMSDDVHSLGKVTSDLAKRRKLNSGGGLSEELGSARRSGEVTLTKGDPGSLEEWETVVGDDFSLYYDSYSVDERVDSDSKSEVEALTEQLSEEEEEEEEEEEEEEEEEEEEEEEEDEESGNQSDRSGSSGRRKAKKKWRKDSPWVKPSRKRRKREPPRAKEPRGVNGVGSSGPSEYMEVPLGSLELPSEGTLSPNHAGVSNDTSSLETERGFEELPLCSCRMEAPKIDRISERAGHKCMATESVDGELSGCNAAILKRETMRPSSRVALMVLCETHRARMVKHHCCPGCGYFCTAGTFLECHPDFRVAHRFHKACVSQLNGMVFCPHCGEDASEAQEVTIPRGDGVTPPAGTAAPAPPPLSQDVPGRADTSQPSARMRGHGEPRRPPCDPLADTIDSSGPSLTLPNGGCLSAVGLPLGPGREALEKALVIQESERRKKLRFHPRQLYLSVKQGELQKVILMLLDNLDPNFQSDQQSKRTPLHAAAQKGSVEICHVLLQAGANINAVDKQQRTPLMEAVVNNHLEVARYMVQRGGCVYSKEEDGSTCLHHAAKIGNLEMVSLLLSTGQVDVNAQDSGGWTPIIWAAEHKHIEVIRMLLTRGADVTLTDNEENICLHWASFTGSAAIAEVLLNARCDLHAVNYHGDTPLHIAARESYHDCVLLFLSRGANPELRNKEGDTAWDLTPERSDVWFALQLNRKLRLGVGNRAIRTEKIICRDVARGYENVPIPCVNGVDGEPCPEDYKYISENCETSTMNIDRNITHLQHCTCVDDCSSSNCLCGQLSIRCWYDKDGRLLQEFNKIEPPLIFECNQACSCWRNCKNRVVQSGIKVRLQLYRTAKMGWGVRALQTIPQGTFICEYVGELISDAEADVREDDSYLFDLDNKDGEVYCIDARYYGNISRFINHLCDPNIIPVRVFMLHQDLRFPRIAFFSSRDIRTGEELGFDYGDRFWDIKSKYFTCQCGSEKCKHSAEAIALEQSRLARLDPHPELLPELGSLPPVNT
In short: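 Using a bead-based AlphaScreen, monomethylated H3K9 product from 2 h room-temperature reactions (G9a 20 nM, peptide 500 nM, SAM 20 uM) was detected with 0.5 ug/mL rabbit anti-H3K9me1 antibody.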
% is set by controls: 0 for no effect and ±100 for the full control effect; potency is the fitted concentration of half-maximal effect; tags give direction and shape of the fitted curve.

Structure (SMILES)	Potency	activity, negative = inhibition
CC(C)c1ccc(NC(=O)C(c2ccc3c(c2)OCO3)N2CCCCC2)cc1 (centres undefined)	inconclusive: 79.4 µM [inhibitor, single point]	–
Cc1ccc(N=Cc2c(O)c3ccccc3oc2=O)cc1F	active: 35.5 µM	–
S=c1[nH]nc(COc2ccc(Cl)cc2)n1-c1ccc(Cl)cc1	–	inactive: 1.05% [at 0.501 µM]
CCCCc1c(O)nc(SCC(=O)NCCc2ccc(OC)c(OC)c2)[nH]c1=O	inconclusive: 89.1 µM [inhibitor, partial curve, poor fit]	–
CCC(c1nnnn1C1CCCC1)N(Cc1cccs1)Cc1cc2cccc(C)c2[nH]c1=O (centres undefined)	inconclusive: 31.6 µM [inhibitor, partial curve, poor fit]	–
O=C(Nc1ccc(Cc2ccncc2)cc1)C1CC1	–	inactive: 6.98%
N#Cc1ccsc1NC(=O)CN1CCN(S(=O)(=O)c2cc(Cl)ccc2Cl)CC1	active: 50.1 µM	–
COc1ccc(/C=C/C=C2\N=C(SC)SC2=O)cc1	active: 3.55 µM	–
O=C(CNc1ccc(Cl)cc1)c1ccc(Br)cc1	–	inactive: -44.9% [at 102 µM]
Cc1cc(C)n(CCc2nc(-c3ccc(F)cc3)cs2)n1	–	inactive: -5.65%
Cc1cc(=O)n2[nH]c(NC(=O)c3cccc(Cl)c3)nc2n1	inconclusive: 22.4 µM [inhibitor, partial curve, poor fit]	–
NC(=O)CN1C(=O)C(=O)N(Cc2cccc(C(F)(F)F)c2)C1=O	inconclusive: 89.1 µM [inhibitor, partial curve, poor fit]	–
O=C(Nc1ccccc1)c1ccccc1NC(=O)C1CCCCC1	inconclusive: 89.1 µM [inhibitor, single point]	–
CC1CCN(C(=O)CNC(=O)Cn2ccc3ccccc3c2=O)CC1	inconclusive: 89.1 µM [inhibitor, single point]	–
COCCCNC(=S)Nc1ccc(N2CCCCC2)cc1	inconclusive: 79.4 µM [inhibitor, partial curve, poor fit]	–
CC1(C)c2[nH]c3ccccc3c2C[C@H]2C(=O)N(N)CC(=O)N21	inconclusive: 89.1 µM [inhibitor, single point]	–
COc1ccccc1N(C)S(=O)(=O)c1ccc(C(=O)N(C)Cc2ccc(Cl)s2)cc1	inconclusive: 15.8 µM [inhibitor, single point]	–
CC#C[C@]1(O)CC[C@H]2[C@@H]3CCC4=CC(=O)CCC4=C3[C@@H](c3ccc(N(C)C)cc3)C[C@@]21C	active: 12.6 µM and active: 9.47 µM	–
CC(=O)C1=C(O)C(=O)N(CCCn2ccnc2)C1c1ccc(Br)cc1 (centres undefined)	inconclusive: 89.1 µM [inhibitor, single point]	–
O=C1c2ccccc2NC(c2ccccn2)N1c1ccc(Cl)cc1 (centres undefined)	inconclusive: 25.1 µM [inhibitor, single point]	–
O=C(Nc1ccc(Cl)cc1C(F)(F)F)C(Sc1nnc(-c2cccs2)o1)c1ccccc1 (centres undefined)	inconclusive: 89.1 µM [inhibitor, single point]	–
O=S(=O)(Nc1nc2ccccc2nc1Cl)c1ccc(Br)cc1	inconclusive: 79.4 µM [inhibitor, single point]	–

Structure (SMILES)	Potency	activity, negative = inhibition
Cc1ccc(N=C2SC(C(=O)O)CC(=O)N2C)cc1C (centres undefined)	–	inactive: -4.56% [at 102 µM]
CCCc1cc(-c2n[nH]c(=S)n2CC)cs1	inconclusive: 3.98 µM [inhibitor, full curve, poor fit]	–
Cc1ccc2c(c1)sc(-c1ccc(N(C)C)cc1)[n+]2C	active: 50.1 µM	–
Cc1ccc2nc(SCc3nnc(-c4cccs4)o3)[nH]c2c1	inconclusive: 31.6 µM [inhibitor, single point]	–
Cc1cccc(N2CCN(C(=S)Nc3ccc4nc5n(c(=O)c4c3)CCCCC5)CC2)c1C	–	inactive: -4.77% [at 102 µM]
CC(C)n1c(-c2ccco2)csc1=Nc1cccnc1	active: 12.6 µM	–
Cc1ccccc1C(=O)n1nc(-c2ccco2)nc1NCc1cccs1	inconclusive: 10 µM [inhibitor, partial curve, poor fit]	–
CN(C)S(=O)(=O)c1cccc(NC(=S)Nc2cc(Cl)cc(Cl)c2)c1	inconclusive: 79.4 µM [inhibitor, single point]	–
Cc1ccc(OCc2cc(C(=O)NC3CCCCC3)no2)cn1	inconclusive: 28.2 µM [inhibitor, partial curve, poor fit]	–
O=C(CNC(=O)c1ccc(F)cc1)N/N=C/c1ccc(O)c([N+](=O)[O-])c1	inconclusive: 89.1 µM [inhibitor, single point]	–
Cc1ccc(C(=O)N(CCCN(C)C)c2nc3ccc(Cl)cc3s2)cc1C	active: 70.8 µM	–
O=C(NC1CCCCC1)C(c1ccc2ncccc2c1)N(Cc1ccc2c(c1)OCO2)C(=O)c1cccs1 (centres undefined)	inconclusive: 79.4 µM [inhibitor, partial curve, poor fit]	–
O=C(c1ccc(CS(=O)c2ccccc2Cl)o1)N1CCN(c2ccccn2)CC1 (centres undefined)	active: 89.1 µM	–
COc1ccc(N2CCN(C(=O)c3c(Cl)cnn3C)CC2)cc1	–	inactive: 39.8% [at 102 µM]
COc1cc(OC)c(-c2nc3ccccc3s2)cc1OC	inconclusive: 79.4 µM [inhibitor, partial curve, poor fit]	–
CCOC(=O)c1cccc(NC(=O)CN2CCN(c3ccc(OC)cc3)CC2)c1	active: 56.2 µM	–
CC(NC(=O)c1ccccc1)C(=O)N/N=C/c1ccccc1 (centres undefined)	inconclusive: 89.1 µM [inhibitor, partial curve, poor fit]	–
CCOC(=O)c1c(C)oc2nc(C)nc(N3CCN(c4cccc(C(F)(F)F)c4)CC3)c12	inconclusive: 7.94 µM [inhibitor, full curve]	–
CCCN(CCC)CCNC(=O)c1nn(C)c2c1CS(=O)(=O)c1ccccc1-2	inconclusive: 10 µM [inhibitor, partial curve, poor fit]	–
O=C(NCC(c1ccc2c(c1)OCO2)N1CCN(c2ccccc2F)CC1)c1ccccc1F (centres undefined)	–	inactive: -31.8%
CCOc1ccccc1NC(=O)COc1coc(CN2CCCc3ccccc32)cc1=O	active: 50.1 µM	–
Cc1cccnc1NC(=O)C1CCN(S(=O)(=O)c2cccs2)CC1	inconclusive: 89.1 µM [inhibitor, partial curve, poor fit]	–
